Data: PubChem BioAssay AID1159614 (National Center for Advancing Translational Sciences (NCATS), 2016)
Among all 45,000 compounds or so, about 65 (0.1%) were called active. Calls follow the shape of the dose curve; as a rule, active = well fitted activation curve with a large enough effect; inconclusive = small, poorly fitted or top-dose-only effect; inactive = no such curve, though single readings can be large or run the other way. The list shows a part of the results.

biological target: Galactocerebrosidase (Homo sapiens) (UniProt P54803); test: A Novel Cell-Based Assay to Identify Small Molecules for B -Galactocerebrosidase; conditions: 145M-Twi-hGALC-G270D cells (Twitcher mouse brain line with human GALC G270D), HMU-beta-Gal fluorescence, 48 h; series mostly up to 57.5 µM; activation: at the top concentration; also: 0% is about no effect; nearly all actives have a fitted effect of over 65% in size
Outline: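 Mutant human GALC (G270D), stably expressed in a Twitcher mouse brain cell line lacking endogenous GALC, is measured in live-treated cells via 6-hexadecanoylamino-4-methylumbelliferyl-β-galactoside hydrolysis (0.1 mM final, pH 5.2) with fluorescent detection.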

UniProt P54803, sequence (P54803 whole entry, looked up): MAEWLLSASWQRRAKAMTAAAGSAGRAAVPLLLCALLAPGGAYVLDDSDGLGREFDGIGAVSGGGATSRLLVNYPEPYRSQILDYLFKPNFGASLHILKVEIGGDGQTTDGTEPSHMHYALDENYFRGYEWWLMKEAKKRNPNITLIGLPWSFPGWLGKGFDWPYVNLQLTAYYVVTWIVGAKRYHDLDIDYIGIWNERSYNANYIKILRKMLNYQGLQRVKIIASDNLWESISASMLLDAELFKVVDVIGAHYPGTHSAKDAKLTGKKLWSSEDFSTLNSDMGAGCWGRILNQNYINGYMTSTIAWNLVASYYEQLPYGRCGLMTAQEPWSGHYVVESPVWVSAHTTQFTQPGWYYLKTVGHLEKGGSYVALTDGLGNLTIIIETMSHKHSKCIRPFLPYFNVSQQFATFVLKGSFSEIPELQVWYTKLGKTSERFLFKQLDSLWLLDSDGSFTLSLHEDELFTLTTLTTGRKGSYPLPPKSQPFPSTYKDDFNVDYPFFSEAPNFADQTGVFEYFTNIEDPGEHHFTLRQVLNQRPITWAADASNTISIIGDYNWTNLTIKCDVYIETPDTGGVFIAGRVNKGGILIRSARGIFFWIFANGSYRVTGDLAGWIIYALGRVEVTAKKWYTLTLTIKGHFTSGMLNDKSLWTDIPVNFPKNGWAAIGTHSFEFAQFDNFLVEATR

activation, inactive:
CCc1cccc(NC(=O)Cn2cc(C(=O)c3ccncc3)c(=O)c3cc(C)c(C)cc32)c1 -37.3%
CCC1CCCCN1C(=O)Cn1c(=O)n(CCCCCC(=O)NCc2ccc(F)cc2)c(=O)c2sccc21 (stereo not given) -6.71%
Cc1cccn2c(=O)cc(COc3ccc(NC(=O)c4cccc(F)c4)cc3)nc12 -3.9%
O=C(O)CCn1cnc2onc(-c3ccccc3Cl)c2c1=O 1.67%
O=C(Nc1c(C(=O)Nc2cccc(C(F)(F)F)c2)oc2ccccc12)c1cc(=O)c2ccccc2o1 -7.54%
COc1ccc(CNC(=O)C(C)N2Cc3ccccc3C2=O)cc1 (stereo not given) 1.68%
CCCCOc1ccccc1C(=O)Nc1nonc1-c1ccccc1 6.47%
Cc1cccc(N(C)c2nc3ccc(C)cc3n3cnnc23)c1 -31.9%
CCCc1ccc(OCC(=O)Nc2sc3c(c2C(=O)OC)CCCCC3)cc1 -20.1%
CC(C)CC(=O)NCC1(N(C)C)CCCCC1 12.2%
CCn1ccc2cc(S(=O)(=O)N3CCCN(C(=O)Nc4ccc(C)c(F)c4)CC3)ccc21 -27.9%
O=C(Nc1nnc(S(=O)(=O)N2CCCCCC2)s1)c1ccccc1Cl 1.35%
COc1cc(OC)c(NC(=O)N2CCc3c(sc4c3CCCC4)C2c2ccccc2)cc1Cl (stereo not given) -11.3%
Cc1cccc(NC(=O)C(Cc2ccccc2)n2cccc2)c1C (stereo not given) -4.7%
CCOc1ccc(NC(=O)c2cc3c(s2)-c2ccccc2OC3)cc1 -3.05%
Cc1nc(-c2ccccc2)sc1CCNC(=O)C(=O)Nc1ccc2c(c1)OCCO2 -4.69%
CCOC(=O)c1ccc(NC(=O)CSc2nccn2-c2ccc(OCC)cc2)cc1 -1.4%
COc1ccccc1CCNC(=O)Cc1c(C)c2c(cc(C)c3c(C)c(C)oc32)oc1=O -12.3%
CCC(C)NC(=O)C1CCN(C(=O)c2ccc(-n3ccc4ccccc43)s2)CC1 (stereo not given) -9.98%
Cc1cccc(N2CCN(C(=O)Cn3cnc4sc(C)c(S(=O)(=O)N5CCN(c6ncccn6)CC5)c4c3=O)CC2C)c1 (stereo not given) 5.06%
FC(F)(F)c1cccc(-c2nnn3c2nc(NC2CCCCC2)c2ccccc23)c1 -11.2%
Cc1cccc(-c2nc(CSCC(=O)N3CCN(c4ccccc4)CC3)c(C)o2)c1 -10.2%
COc1ccccc1N1CCN(c2ccc(-c3nc(-c4ccccc4C)no3)cc2[N+](=O)[O-])CC1 -10.6%
COc1cc(N)c(Cl)cc1C(=O)NC1CCN(Cc2ccccc2)CC1 -18.4%
COc1ccccc1Cc1nc2ccccc2nc1SCC(=O)N1CCc2ccccc21 -14.6%
CCOc1ccc(CCNC(=O)c2cc(=O)[nH]c3ccc(S(=O)(=O)N4CCCCC4)cc23)cc1OCC -1.9%
COc1cccc(NC(=O)C(=O)NCCc2csc(-c3ccc(C(F)(F)F)cc3)n2)c1 -10.3%
CCOc1ccccc1CNC(=O)C1CCN(S(=O)(=O)c2c(C)noc2/C=C/c2ccc(C)cc2)CC1 4.16%
S=P(N1CC1)(N1CC1)N1CC1 -8.52% [at 129 µM]
COc1cc([N+](=O)[O-])ccc1NC(=O)N1CCN(c2cc(-c3noc(C)n3)ccc2C)CC1 -12.3%
COc1ccc(NC(=O)C(C)n2nnc3sc(-c4ccccc4)cc3c2=O)cc1Cl (stereo not given) -12.4%
FC(F)(F)c1cccc(N2CCN(Cc3nnc(-c4ccc5c(c4)OCO5)o3)CC2)c1 -13.9%
O=C(Cc1ccc(F)cc1)NCc1nc2cccnc2n1Cc1ccc(F)cc1 10.2%
Cc1ccccc1OCC(=O)Nc1ccc(OCc2cc(=O)n3ccsc3n2)cc1 -13.1%
CCOC(=O)c1cccc(NC(=O)N2CCC(CN3CCc4ccccc4C3)CC2)c1 -1.42%
CC1CCCN(Cc2nc3c(c(=O)n(C)c(=O)n3C)n2Cc2ccc(Cl)cc2Cl)C1 (stereo not given) -27.5%
CC(C)(C)C1CCc2c(sc(NC(=O)CCC(=O)O)c2C(=O)Nc2ccccc2C(F)(F)F)C1 (stereo not given) -14.4%
CCCc1cc(=O)oc2cc(C)c3c(-c4cccc(OC)c4)coc3c12 -20.8%
NS(=O)(=O)c1ccc(CCNC(=O)c2ccc3nc(Cc4ccccc4)oc3c2)cc1 -12.6%
CCOC(=O)c1cccc(NC(=O)N2CC(CC)Sc3ccccc32)c1 (stereo not given) -9.89%
COc1cccc(-c2nc(SCC(=O)NCC3CCCO3)c(-c3ccc(F)cc3)[nH]2)c1 (stereo not given) -9.69%
CCOc1ccc(S(=O)(=O)c2c[nH]c3ccccc3c2=O)cc1 -1.16%
COc1ccc(CCNC(=O)C2CCN(c3ncnc4c3nc3n4CCCCC3)CC2)c(OC)c1 -6.78%
Cc1ccccc1C(=O)Nc1ccc2nc(Nc3cccc(C(F)(F)F)c3)cc(C)c2c1 -0.139%
CN(C)CCNC(=O)CN1C(=O)CCn2nc(-c3cn(C)c4ccccc34)cc21 -16.8%
CCc1ccc(NC(=O)Cn2ncc3c(C)n(Cc4cccc(Cl)c4)c(C)c3c2=O)cc1 -12.1%
Cc1cc(C)cc(-n2nnc(-c3nsc(NC(=O)c4ccccc4Cl)n3)c2C)c1 -1.99%
COC(=O)c1ccc2c(=O)n(CCCCCC(=O)N3CCN(c4cc(Cl)ccc4C)CC3)c(=O)[nH]c2c1 -7.35%
COc1cccc(CNC(=O)c2ccc(-c3nc(CS(=O)(=O)c4ccccc4)c(C)o3)cc2)c1 -7.12%
CCC1CCCCN1C(=O)CSc1n[nH]c(-c2ccccc2Cl)n1 (stereo not given) -15.8%
CCN(c1ccc(OC)cc1)S(=O)(=O)c1nnc(NC(=O)c2ccccc2C)s1 0.26%
COC(=O)c1cc2sccc2n1Cc1nc(-c2cccc(Br)c2)oc1C -12.7%
O=C(Nc1cccc(C(=O)N2CCN(c3ccccc3F)CC2)c1)c1nsc2ccccc12 -11%
COc1ccccc1Nc1c2c(nc3ccc(NC(=O)c4cccc(OC)c4OC)cc13)CCCC2 -23.4%
O=C(Nc1ccc(C(F)(F)F)cc1)C1CCCN(S(=O)(=O)c2cccc3cccnc23)C1 (stereo not given) -30.3%
CC(=O)Nc1ccc(S(=O)(=O)NCc2ccc(C(=O)NCc3ccc(Cl)cc3)cc2)cc1 -10.9%
Cc1ccc(Cn2c(CNS(=O)(=O)c3ccc(Cl)s3)nc3cccnc32)cc1 0.654%
Cc1cccc(-c2nc(SCC(=O)NCc3ccco3)c3c(=O)n(C)c(=O)n(C)c3n2)c1 -15%
Cc1cc2[nH]c(=O)c(=O)[nH]c2cc1S(=O)(=O)N1CCN(c2cccc(C)c2C)CC1 -12.7%
COc1ccccc1N1CCN(c2nc3c(S(=O)(=O)c4ccc(C)c(C)c4)nnn3c3ccc(Cl)cc23)CC1 -10%
CCOC(=O)C(=O)Nc1c(C(=O)Nc2cccc(F)c2)oc2ccccc12 -11.8%
Cc1cccc(-n2ccnc2SCC(=O)Nc2nc3ccccc3s2)c1 -22.6%
CCN(CCCNC(=O)c1nn(-c2ccc(OC)c(Cl)c2)c(=O)c2c1c1ccccc1n2C)c1cccc(C)c1 -10.9%
CCOC(=O)c1ccc(NS(=O)(=O)c2cc(Br)cc3c2N(C(C)=O)C(C)C3)cc1 (stereo not given) -13.1%
CCc1ccccc1Nc1cc(C(=O)NC2CCC(C)CC2)c2ccccc2n1 (stereo not given) -15.6%
COc1ccc(CNC(=O)c2cc(-c3ccc(C)c(C)c3)n[nH]2)cc1 -13.9%
CCc1c(C)sc(NC(=O)C2c3ccccc3Oc3ccccc32)c1C(=O)OC(C)C 1.57%
COc1ccc(OC)c(C2C(C(=O)Nc3ccccc3OC)=C(C)Nc3c(C(=O)Nc4ccc(F)cc4)cnn32)c1 (stereo not given) -5.47%
O=C(Nc1cc(Cl)cc(Cl)c1)c1cc(S(=O)(=O)N2CCc3ccccc3C2)ccc1F -11.7%
CCOC(=O)c1cccc(NC(=O)C2CCCN(c3nnc(C)c4c(C)n(-c5ccccc5)nc34)C2)c1 (stereo not given) -7.56%
COc1ccc(NC(=O)c2cc3cc(C)ccc3n2C)cc1 -8.2%
Cc1ccc(-c2nnc3ccccc3c2C(=O)Nc2cccc(Cl)c2)cc1 -3.81%
Cn1c(=O)c(=O)n(C)c2cc(N3CCOCC3)c(NS(=O)(=O)c3ccc(F)c(Cl)c3)cc21 -9.62%
CC(C)(C)OC(=O)N1CCC(c2c(C(=O)NCc3ccc4c(c3)OCO4)cnn2-c2ccccc2Cl)CC1 -12%
COc1ccc(NC(=O)c2ccc3c(c2)nnn3C2CCCC2)cc1Cl -11.2%
Cc1ccc(Cn2c(C(=O)O)c(CNCc3cccs3)c3ccc(C)cc32)cc1 -2.32%
COc1cc(NC(=O)NCCn2nnc3cc(S(=O)(=O)N(C)C)ccc32)cc(OC)c1 0.841%
Cc1ccc(Cl)cc1NC(=O)c1ccc2snnc2c1 -14.5%
COc1ccc(C(=O)Nc2nnc(S(=O)(=O)N(CC(C)C)c3ccccc3)s2)cc1 -3.76%
CNS(=O)(=O)c1cn(CC(=O)Nc2ccc(C)c(N(C)C)c2)cc1S(=O)(=O)NC -6.44%
CCN(C(=O)c1cc(S(=O)(=O)N2CCc3ccccc32)cn1C)c1cccc(C)c1 -9.17%
CC1=C(C(N)=O)C(c2ccc(F)cc2)n2nc(-c3ccc(N(C)C)cc3)nc2N1 (stereo not given) -18.4%
Cc1ccc(Cl)cc1N1CCN(C(=O)c2cccn2-c2nnc(N3CCCC3)s2)CC1 -12.3%
Oc1ccc(C(O)CNCCCCCCNCC(O)c2ccc(O)c(O)c2)cc1O (stereo not given) -24.1%
Cc1ccc2c(=O)c(C(=O)c3ccc(F)cc3)cn(CC(=O)NCc3ccccc3Cl)c2n1 -18.7%
Cc1ccc(-c2nn(CC(=O)NC3CCCCC3)c3c2cnc2ccccc23)cc1 -17%
Cc1cccc(C(=O)OCc2cc(=O)n3nc(C4CCCCC4)sc3n2)c1 -13.2%
COc1ccc2[nH]c(S(=O)Cc3ncc(C)c(OC)c3C)nc2n1 (stereo not given) -4.44%
O=C(Cc1cccs1)NC1CC(=O)N(c2ccc(Cl)cc2)C1 (stereo not given) -11.5%
Cc1ccc(-c2nn3c(-c4ccccc4)nnc3c3ccccc23)cc1 -8.36%
CC(C)Sc1ncc(Cl)c(C(=O)N(Cc2ccc(F)cc2)C2CCS(=O)(=O)C2)n1 (stereo not given) -15.2%
Cc1ccc(NC(=O)CN2C(=O)C(C)(C)c3ccccc32)cc1 -8.15%
CC1=C(C(=O)Nc2ccc(C)cc2)C(c2ccc(Cl)cc2)n2nnnc2N1 (stereo not given) -20.4%
CCOc1ccc(N2CC(NC(=O)Cc3ccccc3)CC2=O)cc1 (stereo not given) -17.6%
COc1ccc(N2Cc3cccc(C(=O)Nc4ccc(C)c(C)c4)c3C2=O)cc1 4.41%
